# Reference: PubChem BioAssay (NCATS)
# Inconclusive results, whose numbers are uncertain, are shown with a selection of clear calls. Potencies of inconclusive entries are doubtful fits and often do not repeat. Calls of active or inactive are those of the source. The call rests on the fitted dose curve; in most records, active means well fitted inhibition curve with a large enough effect; inconclusive means small, poorly fitted or top-dose-only effect; inactive means no such curve, though single readings can be large or run the other way.
# Molecular target: Retinaldehyde dehydrogenase 3 (Homo sapiens) (UniProt P47895)
# Experiment: qHTS for Inhibitors of the Aldehyde Dehydrogenase Family (ALDH1A3) Primary screen (AID 2061315);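 on activity change, negative = inhibition: plate controls were DMSO vehicle for no effect and reference inhibitor for full effect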
# Conditions: ALDH inhibition qHTS; activity change, negative = inhibition: at 56 µM (top of the series) unless noted
# Potency means the concentration at half of the fitted maximal effect; tags describe the fitted curve by direction and shape.
SMILES,Potency,"activity change, negative = inhibition"
COc1cccc(Nc2ccc(N3CCCCC3)cc2)c1OC,"inconclusive: 4.47 µM [inhibitor, full curve, poor fit]",
CC(C)(C)c1ccc(CNC(=S)NCc2ccc(NS(C)(=O)=O)c(F)c2)cc1,,inactive: 22.2%
CCc1c[nH]c2ncnc(N3CC[C@](N)(CNC(=O)c4ccc(F)cc4F)C3)c12,,inactive: 7.38%
COC(=O)C1=CO[C@@H](O[C@@H]2O[C@H](CO)[C@@H](O)[C@H](O)[C@H]2O)[C@@H]2C(CO)=CC[C@H]12,"inconclusive: 10 µM [inhibitor, single point]",
Cc1ccc(S(=O)(=O)Nc2ccccc2C(=O)Nc2nccs2)cc1,,inactive: 20.6%
NC(=O)C1CCN(c2nc(-c3cccc4sc5ccccc5c34)cs2)CC1,,inactive: 34.8%
C/C=C1/[C@H](O[C@@H]2O[C@H](CO)[C@@H](O)[C@H](O)[C@H]2O)OC=C(C(=O)OC)[C@H]1CC(=O)O[C@@H]1O[C@H](CO)[C@@H](O)[C@H](O)[C@H]1O,"inconclusive: 5.01 µM [inhibitor, partial curve]",
O=C(/C=C/c1ccccc1)OC[C@H]1O[C@@H](OC(=O)c2cc(O)c(O)c(O)c2)[C@H](O)[C@@H](O)[C@@H]1O,"inconclusive: 3.98 µM [inhibitor, partial curve, poor fit]",
COc1ccc(OC)c(C2C(C#N)=C(N)Oc3n[nH]c(-c4ccc5ccccc5c4)c32)c1 (stereo not given),,inactive: 9.94%
Oc1ccc(CNc2cc(Br)ccn2)c2cccnc12,"inconclusive: 8.91 µM [inhibitor, partial curve, poor fit]",
